Results from PubChem BioAssay (Tox21).
Values joined by “and” are separate entries in the source; they are usually repeats but may differ in a detail not shown here. Identical values can stand only once. This list was built around the results that the source calls inconclusive (neither active nor inactive); the mix of calls is not that of the screen. For part of these data: Potencies beside an inconclusive call are fits to weak or partial responses and may not hold up. Active and inactive are the calls of the source. Unless noted, calls follow the shape of the dose curve; as a rule, active = well fitted curve in the direction sought with a large enough effect in the repeat runs; inconclusive = weak or mixed curves; inactive = no such curve, though single readings can be large; an effect the other way counts as inactive or inconclusive.

Key:
[1] = qHTS assay to identify small molecule antagonists of the estrogen receptor beta (ER-beta) signaling pathway - cell viability counter screen (AID 1259382);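 also: HEK293T cells carrying ER-beta-UAS-bla reporter stimulated with estradiol; % is scaled to controls: 0 for no effect and ±100 for the full control effect; nearly all actives have a fitted effect of over 55% in size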
Outline: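 Tox21 10K library tested in qHTS format on ER-beta-bla HEK293T cells stimulated with 1nM E2; 16 hr treatment at 37C. Same-well CellTiter-Glo luminescence served as the cell viability measure.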

[2] = qHTS assay to identify small molecule antagonists of the progesterone receptor (PR) signaling pathway - cell viability counter screen (AID 1346798); also: nearly all actives have a fitted effect of over 50% in size; also: potency is read from the fitted curve at half-maximal effect
Outline: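 Viability was determined by ATP-based luminescence (CellTiter-Glo) in PR-UAS-bla HEK293T cells cultured in 2% charcoal-stripped serum and incubated 16 hr with compounds under R5020 stimulation.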

[3] = qHTS assay to identify small molecule antagonists of the TGF-beta/Smad signaling pathway (AID 1346924; active = well fitted inhibition curve with a large enough effect in the signal ratio in the repeat runs, not every such curve was filed as active; inconclusive = weak or mixed curves; the % refers to the signal ratio; also: potency is read from the fitted curve at half-maximal effect); conditions: SBE-bla HEK293T, TGF-beta/Smad reporter, beta-lactamase ratio; activity, negative = inhibition: at 76.8 µM (top of the series) unless noted
Outline: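 SBE-bla HEK 293T cells were plated overnight, then received compound in DMSO plus TGF-beta1 (added as a 0.25 ng/mL solution) and were incubated 5 h at 37 C. Beta-lactamase reporter activity was read after 2 h at room temperature with LiveBLAzer B/G FRET substrate (ex 405, em 460/530 nm).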

[4] = qHTS assay to identify small molecule agonists or antagonists of the thyroid stimulating hormone receptor (TSHR) signaling pathway - wild type cell line counter screen (AID 1259384; calls by dose curve; also: % is scaled to controls: 0 for no effect and ±100 for the full control effect); conditions: HEK293 wild type, cAMP HTRF counter-screen; cAMP activity change: at 92.4 µM (top of the series), stronger effect = higher value unless noted
Outline: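 Wild-type HEK293 cells were plated 18 h at 37 C/5% CO2, pin-dosed with compound plus Ro20-1724 medium, held 30 min at room temperature, then given cAMP-d2 and anti-cAMP-cryptate; fluorescence was read after 1 h. Fifteen concentrations, triplicate.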

[5] = qHTS assay to identify small molecule agonists of the estrogen receptor alpha (ER-alpha) signaling pathway in the presence of an antagonist - cell viability counter screen (AID 1259386);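 also: cells exposed to compounds for 22 h at 37 °C before the viability read; nearly all actives have a fitted effect of over 30% in size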; also: potency is read from the fitted curve at half-maximal effect
Outline: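 Fluorescent CellTiter-Fluor viability signal from VM7Luc4E2 cells, with the reagent added during the final hour of a 22hr compound exposure at 37C in the presence of 10.0nM ICI-182,780.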

[6] = molecular target: Progesterone receptor (Homo sapiens) (UniProt P06401); experiment: qHTS assay to identify small molecule agonists of the progesterone receptor (PR) signaling pathway (AID 1346784; calls by dose curve; also: nearly all actives have a fitted effect of over 30% in size; also: potency is read from the fitted curve at half-maximal effect; as to activation: % is scaled to controls: 0 for no effect and ±100 for the full control effect); conditions: PR-UAS-bla HEK293T, beta-lactamase FRET ratio, 16 h; activation: at 92.4 µM (top of the series) unless noted
Chain of UniProt P06401 (P06401 whole entry, looked up): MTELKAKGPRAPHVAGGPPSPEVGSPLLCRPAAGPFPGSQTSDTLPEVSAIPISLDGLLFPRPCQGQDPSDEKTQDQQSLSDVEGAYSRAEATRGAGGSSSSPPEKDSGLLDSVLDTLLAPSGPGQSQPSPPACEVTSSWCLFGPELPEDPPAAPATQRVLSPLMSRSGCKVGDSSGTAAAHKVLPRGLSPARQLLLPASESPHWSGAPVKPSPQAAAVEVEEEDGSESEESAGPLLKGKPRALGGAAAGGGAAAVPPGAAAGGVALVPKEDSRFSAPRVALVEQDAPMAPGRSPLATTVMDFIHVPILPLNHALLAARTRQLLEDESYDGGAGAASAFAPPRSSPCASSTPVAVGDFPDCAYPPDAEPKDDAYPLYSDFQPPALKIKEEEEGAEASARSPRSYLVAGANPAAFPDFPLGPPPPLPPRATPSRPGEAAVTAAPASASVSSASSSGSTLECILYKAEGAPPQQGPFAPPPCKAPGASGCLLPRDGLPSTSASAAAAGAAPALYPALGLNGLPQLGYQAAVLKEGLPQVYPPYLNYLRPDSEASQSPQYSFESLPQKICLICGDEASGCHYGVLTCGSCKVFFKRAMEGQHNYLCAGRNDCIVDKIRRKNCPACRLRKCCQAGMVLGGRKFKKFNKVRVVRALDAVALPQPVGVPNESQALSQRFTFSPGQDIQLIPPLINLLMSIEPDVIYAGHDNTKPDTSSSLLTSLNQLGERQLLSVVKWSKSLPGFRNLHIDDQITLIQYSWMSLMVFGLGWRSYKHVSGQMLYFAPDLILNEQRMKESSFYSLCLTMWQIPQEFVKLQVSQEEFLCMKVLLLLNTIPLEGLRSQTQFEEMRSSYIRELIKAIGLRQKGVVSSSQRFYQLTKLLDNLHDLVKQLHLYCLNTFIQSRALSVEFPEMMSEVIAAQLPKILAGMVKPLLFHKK
Outline: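 The screen uses PR-UAS-bla HEK 293T cells in charcoal-stripped serum (2%). Compounds are applied for 16 hr at 37C after a 6 hr pre-incubation, and reporter activity is detected with a FRET beta-lactamase substrate after 2 hr at room temperature.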

[7] = molecular target: Progesterone receptor (Homo sapiens) (UniProt P06401); experiment: qHTS assay to identify small molecule antagonists of the progesterone receptor (PR) signaling pathway (AID 1346795; active = well fitted inhibition curve with a large enough effect in the signal ratio in the repeat runs, not every such curve was filed as active; inconclusive = weak or mixed curves; the % refers to the signal ratio; also: potency is read from the fitted curve at half-maximal effect); conditions: PR-UAS-bla HEK293T, beta-lactamase FRET ratio, 16 h; activity change, negative = inhibition: at 92.4 µM (top of the series) unless noted
Outline: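 After 6 hr plating at 37C in 2% stripped-serum medium, PR-UAS-bla HEK293T cells got compounds, then 1 nM R5020. Sixteen hours later, LiveBLAzer substrate was applied for 2 hr at room temperature and fluorescence was recorded.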

[8] = qHTS assay to identify small molecule agonists of the progesterone receptor (PR) signaling pathway - cell viability counter screen (AID 1346799; calls by dose curve; also: nearly all actives have a fitted effect of over 45% in size; also: potency is read from the fitted curve at half-maximal effect)
Outline: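 Viability was scored by ATP luminescence (CellTiter-Glo, 30 min, room temperature) in the same wells used for the reporter readout, after 16 hr compound exposure of PR-UAS-bla HEK293T cells.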

[9] = qHTS assay to identify small molecule antagonists of the TGF-beta/Smad signaling pathway - cell viability counter screen (AID 1346824); also: potency is read from the fitted curve at half-maximal effect; nearly all actives have a fitted effect of over 50% in size
Outline: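 SBE-bla HEK 293T cells were plated overnight at 37 C, then given compounds in DMSO plus TGF-beta1 (added as 0.25 ng/mL solution) for 5 hr. After the bla read, CellTiter-Glo was added to the same wells and luminescence read after 30 min at room temperature.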

[10] = qHTS assay to identify small molecule agonists of the TGF-beta/Smad signaling pathway (AID 1346859; active = well fitted activation curve with a large enough effect in the signal ratio in the repeat runs, not every such curve was filed as active; inconclusive = weak or mixed curves; the % refers to the signal ratio; also: potency is read from the fitted curve at half-maximal effect; as to activation: % is scaled to controls: 0 for no effect and ±100 for the full control effect); conditions: SBE-bla HEK293T, TGF-beta/Smad beta-lactamase reporter, 5 h; activation: at 76.8 µM (top of the series)
Outline: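 Dual-wavelength fluorescence (460/530 nm emission) quantified beta-lactamase expression under the Smad binding element in HEK 293T cells following 5 hr compound treatment at 37 C.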

[11] = Human pregnane X receptor (PXR) small molecule agonists, qHTS cell viability counter screen (AID 1346977); also: potency is read from the fitted curve at half-maximal effect; nearly all actives have a fitted effect of over 50% in size
Outline: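 HepG2 cells stably carrying the PXR-Luc reporter are cultured with 5% charcoal-stripped FBS and treated with compounds for 24hr. CellTiter-Fluor is added at 23hr and fluorescence is read after 1hr.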

[12] = Caspase-3/7 induction in CHO-K1 cells by small molecules, qHTS cell viability counter screen (AID 1346979); also: potency is read from the fitted curve at half-maximal effect; nearly all actives have a fitted effect of over 35% in size
Outline: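 Seeding: 1,500 CHO-K1 cells/well. Rest: 5hr, 37C. Treatment: compounds in DMSO, 16hr. Read: CellTiter-Fluor, 1hr, fluorescence.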

[13] = molecular target: Thyrotropin receptor (Homo sapiens) (UniProt P16473); experiment: qHTS assay to identify small molecule antagonists of the thyroid stimulating hormone receptor (TSHR) signaling pathway (AID 1259385; calls by dose curve; also: nearly all actives have a fitted effect of over 20% in size; also: potency is read from the fitted curve at half-maximal effect; as to activity change, negative = inhibition: % is scaled to controls: 0 for no effect and ±100 for the full control effect); conditions: TSHR-HEK293 cAMP HTRF, TSH-stimulated antagonist mode; activity change, negative = inhibition: at 92.4 µM (top of the series) unless noted
Chain of UniProt P16473 (P16473 whole entry, looked up): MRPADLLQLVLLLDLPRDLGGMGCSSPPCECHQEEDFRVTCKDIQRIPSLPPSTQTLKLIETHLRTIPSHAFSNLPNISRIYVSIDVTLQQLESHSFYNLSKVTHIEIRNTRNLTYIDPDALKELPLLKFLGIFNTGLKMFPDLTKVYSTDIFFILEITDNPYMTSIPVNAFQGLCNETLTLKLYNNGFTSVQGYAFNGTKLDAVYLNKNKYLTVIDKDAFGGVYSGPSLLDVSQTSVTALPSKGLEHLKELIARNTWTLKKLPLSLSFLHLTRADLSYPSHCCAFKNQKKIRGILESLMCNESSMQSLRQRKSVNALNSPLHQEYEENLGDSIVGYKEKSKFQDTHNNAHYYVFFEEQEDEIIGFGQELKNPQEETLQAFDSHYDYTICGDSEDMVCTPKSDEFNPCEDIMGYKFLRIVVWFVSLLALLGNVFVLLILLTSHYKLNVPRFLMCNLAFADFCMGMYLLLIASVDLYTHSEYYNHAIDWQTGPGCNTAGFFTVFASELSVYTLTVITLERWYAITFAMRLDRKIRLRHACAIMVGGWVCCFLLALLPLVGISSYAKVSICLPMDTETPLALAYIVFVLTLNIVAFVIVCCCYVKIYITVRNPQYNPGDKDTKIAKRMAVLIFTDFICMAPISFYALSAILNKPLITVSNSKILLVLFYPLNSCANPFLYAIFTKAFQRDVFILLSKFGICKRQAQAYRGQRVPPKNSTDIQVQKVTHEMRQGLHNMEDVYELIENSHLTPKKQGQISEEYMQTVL
Outline: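 TSHR-HEK293 cells were plated and held 18 h at 37C/5% CO2, then given compound plus Ro20-1724 and stimulated with TSH at 1.5 ng/mL final. After 30 min at room temperature, cAMP was detected with cAMP-d2/anti-cAMP-cryptate (1 h) by fluorescence.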

[14] = qHTS assay to identify small molecule agonists of the TGF-beta/Smad signaling pathway - cell viability counter screen (AID 1346829); also: potency is read from the fitted curve at half-maximal effect; nearly all actives have a fitted effect of over 45% in size
Outline: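 SBE-bla HEK 293T cells plated overnight, compound exposure 5 hr at 37 C. Viability read in the same wells by CellTiter-Glo luminescence after 30 min at room temperature, following the beta-lactamase read.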

[15] = molecular target: Thyrotropin-releasing hormone receptor (Homo sapiens) (UniProt P34981); experiment: qHTS assay to identify small molecule antagonists of the thyrotropin-releasing hormone receptor (TRHR) signaling pathway (AID 1346877; active = well fitted inhibition curve with a large enough effect in the repeat runs, not every such curve was filed as active; inconclusive = weak or mixed curves; also: potency is read from the fitted curve at half-maximal effect)
Chain of UniProt P34981 (P34981 whole entry, looked up): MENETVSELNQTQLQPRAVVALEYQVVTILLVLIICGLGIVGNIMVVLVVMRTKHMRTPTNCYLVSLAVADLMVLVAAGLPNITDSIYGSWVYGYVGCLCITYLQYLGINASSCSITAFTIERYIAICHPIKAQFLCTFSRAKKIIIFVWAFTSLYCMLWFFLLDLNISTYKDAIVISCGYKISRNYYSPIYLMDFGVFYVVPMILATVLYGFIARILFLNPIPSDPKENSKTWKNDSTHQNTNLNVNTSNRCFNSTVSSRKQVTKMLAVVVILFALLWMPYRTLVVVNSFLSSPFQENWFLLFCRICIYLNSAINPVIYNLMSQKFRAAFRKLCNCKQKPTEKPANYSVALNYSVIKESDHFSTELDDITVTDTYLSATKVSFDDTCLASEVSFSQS
Outline: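 In this cell-based calcium flux format, HEK293 cells expressing TRHR received test compound for 5 min before the agonist TRH (1 nM final). Dye loading lasted 2 h at 37 °C.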

[16] = molecular target: Thyrotropin-releasing hormone receptor (Homo sapiens) (UniProt P34981); experiment: qHTS assay to identify small molecule agonists of the thyrotropin-releasing hormone receptor (TRHR) signaling pathway (AID 1346891; calls by dose curve; also: potency is read from the fitted curve at half-maximal effect)
Outline: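 Kinetic fluorescence (3 min, 1 s intervals) reported intracellular calcium after compound transfer onto TRHR-Hek293 cells pre-loaded with dye for 2 h at 37 °C.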

[17] = molecular target: Estrogen receptor (Homo sapiens) (UniProt P03372); experiment: qHTS assay to identify small molecule agonists of the estrogen receptor alpha (ER-alpha) signaling pathway in the presence of an antagonist (AID 1259383; calls by dose curve; also: nearly all actives have a fitted effect of over 15% in size; also: potency is read from the fitted curve at half-maximal effect)
Chain of UniProt P03372 (P03372 whole entry, looked up): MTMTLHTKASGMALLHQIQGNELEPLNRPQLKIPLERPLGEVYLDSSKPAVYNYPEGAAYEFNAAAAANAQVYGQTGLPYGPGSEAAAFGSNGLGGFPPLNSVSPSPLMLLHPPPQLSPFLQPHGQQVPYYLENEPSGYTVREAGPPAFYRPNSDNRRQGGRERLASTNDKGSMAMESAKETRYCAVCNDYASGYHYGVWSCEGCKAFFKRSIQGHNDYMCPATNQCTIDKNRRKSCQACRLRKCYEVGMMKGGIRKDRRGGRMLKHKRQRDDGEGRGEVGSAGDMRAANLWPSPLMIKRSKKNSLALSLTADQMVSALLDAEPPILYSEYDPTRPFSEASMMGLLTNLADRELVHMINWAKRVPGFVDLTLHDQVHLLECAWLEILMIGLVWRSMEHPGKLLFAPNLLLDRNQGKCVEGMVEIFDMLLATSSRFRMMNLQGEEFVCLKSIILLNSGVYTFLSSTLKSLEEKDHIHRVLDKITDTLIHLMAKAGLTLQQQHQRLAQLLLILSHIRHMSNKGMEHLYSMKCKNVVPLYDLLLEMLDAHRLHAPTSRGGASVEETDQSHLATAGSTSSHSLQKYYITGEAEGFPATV
Outline: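 In VM7Luc4E2 cells, 4,000 per well, compounds at 15 concentrations were co-incubated 22hr at 37C with 10.0nM final ICI-182,780. Luminescence from the stably transfected 4×ERE-luciferase reporter was recorded 30min after ONE-Glo addition.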
Tags tell the direction and shape of the fitted curve or compound fluorescence and quenching.

CSc1nnc(C(C)(C)C)c(=O)n1N
inconclusive: activity, negative = inhibition [3] -8.47%
inactive: Potency [1] | Potency [2]

C=C(C)[C@H]1Cc2c(ccc3c2O[C@@H]2COc4cc(OC)c(OC)cc4[C@@H]2C3=O)O1
inactive: Potency [10]
inconclusive: cAMP activity change [4] 3.32% | Potency [6] 33.5 µM [falling, partial curve, poor fit] | Potency [8] 27.7 nM [rising, full curve] and 15.4 nM [rising, full curve] and 596 nM [rising, full curve] | Potency [9] 8.8 nM [cytotoxic, full curve] and 309 nM [cytotoxic, full curve] and 5.4 nM [cytotoxic, full curve]
active: Potency [5] 2.77 µM and 96.9 nM and 188 nM | Potency [7] 19.6 µM and 9.69 µM and 11.9 µM | Potency [11] 112 nM and 2.17 µM and 298 nM | Potency [12] 175 nM and 770 nM and 7.5 µM

C[C@]12CC[C@@H]3c4ccc(OC(=O)N(CCCl)CCCl)cc4CC[C@H]3[C@@H]1CC[C@@H]2O
inactive: Potency [13] | Potency [5]
inconclusive: Potency [7] 13.3 µM [falling, full curve, poor fit] | Potency [8] 33.5 µM [rising, single point] | Potency [12] 33.5 µM [cytotoxic, partial curve, poor fit]

C[C@H]1CC[C@@H]2[C@@H](C)[C@H]3[C@H](C[C@H]4[C@@H]5CC=C6CC(O[C@@H]7O[C@H](CO)[C@H](O)[C@H](O[C@@H]8O[C@H](CO)[C@@H](O)[C@H](O)[C@H]8O)[C@H]7O[C@H]7O[C@@H](C)[C@H](O)[C@@H](O)[C@H]7O)CC[C@]6(C)[C@H]5CC[C@]34C)N2C1 (stereo partly drawn)
active: Potency [13] 10 µM | Potency [5] 28.2 µM | Potency [2] 31.6 µM | Potency [8] 22.4 µM | Potency [9] 12.7 µM | Potency [14] 12.7 µM | Potency [15] 7.82 µM | Potency [16] 8.99 µM
inconclusive: activation [6] -10% | Potency [7] 31.6 µM [falling, single point] | Potency [10] 8.02 µM [falling, full curve] | Potency [3] 31.9 µM [cytotoxic, partial curve] | Potency [12] 31.6 µM [cytotoxic, full curve, poor fit]

O=C/C(Cl)=C(/Cl)C(=O)O
inconclusive: activity change, negative = inhibition [7] -32.5% | activity, negative = inhibition [3] 9.65% and 0.0522%
inactive: Potency [4]

Clc1cc2c(cc1Cl)Oc1cc(Cl)c(Cl)cc1O2
inactive: activity change, negative = inhibition [13] -3.4% [at 0.349 µM]

c1csc(-c2ccc(-c3cccs3)s2)c1
inconclusive: Potency [17] 38.6 µM [activator, partial curve, poor fit] | Potency [7] 30.6 µM [rising, partial curve] | Potency [10] 21.9 µM [activator, partial curve] | activity, negative = inhibition [3] -13.1% | Potency [11] 19.3 µM [cytotoxic, full curve]

O=C(O)COc1nc(Cl)c(Cl)cc1Cl
active: Potency [8] 27.9 µM
inconclusive: activity change, negative = inhibition [13] -2.54% | activation [6] 10.3% | activity change, negative = inhibition [7] 3.92% | Potency [2] 35.2 µM [cytotoxic, partial curve, poor fit] | Potency [14] 14.1 µM [rising, partial curve, poor fit] | Potency [10] 20 µM [rising, full curve, poor fit] | Potency [3] 56.2 µM | Potency [12] 24.2 µM
inactive: Potency [17]

CO/N=C(\C(=O)OC)c1ccccc1CO/N=C(\C)c1cccc(C(F)(F)F)c1
inconclusive: activity change, negative = inhibition [13] -14.8% | Potency [8] 2.73 µM | Potency [9] 6.16 µM [cytotoxic, partial curve] | activity, negative = inhibition [3] -42.9% | Potency [11] 8.63 µM [cytotoxic, full curve]
active: Potency [5] 30.6 µM | Potency [7] 6.86 µM

Sc1ccccc1
inactive: Potency [13] | Potency [8]
inconclusive: Potency [5] 2.73 µM [cytotoxic, partial curve, poor fit] | activity change, negative = inhibition [7] -35.4% and -10.7% | Potency [2] 68.6 µM [rising, single point] | activity, negative = inhibition [3] -1.03% | Potency [12] 78.1 µM [cytotoxic, single point]
